Test results: paper PMC5540273 (PLoS ONE, 2017)
pKd: −log10 of the molar value. For some of these results: Shown are results outside the selection of hits, which stands elsewhere. The entries are a selection whose mix differs from that of the whole data set.

Columns and labels:
[1] = system: NEK10
[2] = system: T1, PCTK2
T1 construct: gene CDK17

[3] = system: PIK3C2G
[4] = system: PIK3CD
[5] = system: SLK
[6] = system: PIM1
[7] = system: PRKCI
[8] = system: PIP5K1A
[9] = system: PIP5K1C
[10] = system: ULK3
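Also: kd values determined as follow-up on hits from a single-replicate KINOMEscan panel screen.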

Work on `O=C1NC(=O)C(c2ccccc2)=C1Nc1ccc(Cl)c(C(=O)O)c1` [SB-390532] yielded a pKd [1] of 6.34.
For `O=C1NC(=O)C(c2ccc(Cl)cc2)=C1Nc1ccc(O)c(Cl)c1` [SB-405367], the pKd [2] was under 5.00.
In the case of `COc1ccc(C2=C(Nc3cccc(Cl)c3)C(=O)NC2=O)cc1` [SB-326892], the pKd [3] was under 5.00, the pKd [4] was under 5.00 and the pKd [5] was 5.20.
For `Cc1cc(C)cc(Oc2nccc(-c3c(-c4ccc(F)cc4)ncn3C3CCNCC3)n2)c1.O=C(O)C(F)(F)F.O=C(O)C(F)(F)F.O=C(O)C(F)(F)F` [SB-284851], the pKd [6] was under 5.00 and the pKd [7] was under 5.00.
`CSc1ccc(NC2=C(c3cccc(Cl)c3)C(=O)NC2=O)cc1` [SB-341528] was tested, and the pKd [8] was under 5.00.
For `O=C1NC(=O)C(c2ccccc2)=C1Nc1cc(Cl)c(O)c(Cl)c1` [SB-390530], the pKd [9] was 5.82.
With `O=C1NC(=O)C(c2ccccc2Cl)=C1Nc1cccc(C(=O)O)c1` [SB-390526] the pKd [10] was under 5.00.
